Many values rest on one well or one pass, so single values are uncertain.
Assays:
CHO-K1 [1] = assay: relative survival (nuclei to bead ratio vs DMSO control) (% of vehicle control); higher = more surviving cells
Description: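 Flow-cytometric in vitro micronucleus assay (Litron MicroFlow) in CHO-K1 cells in 96-well plates, 19 concentrations (4.5-200 µM, n=1 per concentration). Without S9, cells were exposed for 24 h and sampled at 48 h. With Aroclor 1254-induced rat liver S9, cells were exposed for 3-4 h and sampled at 27-28 h. Read-outs are %MN and %hypodiploid nuclei relative to nucleated events, and relative survival as the nuclei-to-bead ratio versus the 1% DMSO vehicle control (x100).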

CHO-K1 [2] = assay: micronucleus frequency (% of nucleated events); higher = more micronuclei (genotoxic)
CHO-K1 [3] = assay: hypodiploid nuclei frequency (% of nucleated events); higher = more hypodiploid events (aneugenic)
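Wherever hypodiploid nuclei frequency (% of nucleated events) is given: hypodiploid nuclei gated on a flow cytometer with 488 nm excitation after SYTOX Green staining, cultures at 37 °C, positive controls vinblastine without S9 and cyclophosphamide with S9.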
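Wherever micronucleus frequency (% of nucleated events) is given: cells lysed with nuclei stained by SYTOX Green, then micronucleus-gated events counted against nucleated events by flow cytometry with 488 nm excitation.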
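Wherever relative survival (nuclei to bead ratio vs DMSO control) is given: Lysed-cell nuclei stained with SYTOX Green and counted against counting beads by flow cytometry at 488 nm excitation, with vinblastine (no S9) and cyclophosphamide (plus S9) as positive controls.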

CC(C)(OOC(C)(C)c1ccccc1)c1ccccc1 [Dicumyl peroxide]
Settings	hypodiploid nuclei frequency, CHO-K1 [3] [%]	micronucleus frequency, CHO-K1 [2] [%]	relative survival, CHO-K1 [1]
concentration: 4.5 (µM), S9 metabolic activation: with S9, exposure time: 3-4 hours	0.2	1.06	101
concentration: 4.5 (µM), S9 metabolic activation: without S9, exposure time: 24 hours	0.8	2.18	109
concentration: 5.63 (µM), S9 metabolic activation: with S9, exposure time: 3-4 hours	0.32	1.34	87.7
concentration: 5.63 (µM), S9 metabolic activation: without S9, exposure time: 24 hours	0.72	1.66	83.7
concentration: 7.04 (µM), S9 metabolic activation: with S9, exposure time: 3-4 hours	0.32	1.12	99.9
concentration: 7.04 (µM), S9 metabolic activation: without S9, exposure time: 24 hours	1.04	2.34	89
concentration: 8.8 (µM), S9 metabolic activation: with S9, exposure time: 3-4 hours	0.38	1.2	104
concentration: 8.8 (µM), S9 metabolic activation: without S9, exposure time: 24 hours	0.78	1.66	91.1
concentration: 11 (µM), S9 metabolic activation: with S9, exposure time: 3-4 hours	0.34	1.3	87.3
concentration: 11 (µM), S9 metabolic activation: without S9, exposure time: 24 hours	0.68	2.2	87.8
concentration: 13.7 (µM), S9 metabolic activation: with S9, exposure time: 3-4 hours	0.18	1	90.5
concentration: 13.7 (µM), S9 metabolic activation: without S9, exposure time: 24 hours	0.98	1.56	91.1
concentration: 17.2 (µM), S9 metabolic activation: with S9, exposure time: 3-4 hours	0.46	1.54	106
concentration: 17.2 (µM), S9 metabolic activation: without S9, exposure time: 24 hours	1	1.34	88.2
concentration: 21.5 (µM), S9 metabolic activation: with S9, exposure time: 3-4 hours	0.26	1.06	96
concentration: 21.5 (µM), S9 metabolic activation: without S9, exposure time: 24 hours	1.08	1.78	108
concentration: 26.8 (µM), S9 metabolic activation: with S9, exposure time: 3-4 hours	0.3	1.22	99.1
concentration: 26.8 (µM), S9 metabolic activation: without S9, exposure time: 24 hours	0.64	1.58	89.8
concentration: 33.6 (µM), S9 metabolic activation: with S9, exposure time: 3-4 hours	0.28	0.86	98
concentration: 33.6 (µM), S9 metabolic activation: without S9, exposure time: 24 hours	0.62	2.06	105
concentration: 41.9 (µM), S9 metabolic activation: with S9, exposure time: 3-4 hours	0.14	0.96	92.3
concentration: 41.9 (µM), S9 metabolic activation: without S9, exposure time: 24 hours	0.66	2.04	103
concentration: 52.4 (µM), S9 metabolic activation: with S9, exposure time: 3-4 hours	0.28	0.9	94.5
concentration: 52.4 (µM), S9 metabolic activation: without S9, exposure time: 24 hours	0.66	2.54	86.7
concentration: 65.5 (µM), S9 metabolic activation: with S9, exposure time: 3-4 hours	0.32	1.3	97.2
concentration: 65.5 (µM), S9 metabolic activation: without S9, exposure time: 24 hours	0.94	2.12	84.8
concentration: 81.9 (µM), S9 metabolic activation: with S9, exposure time: 3-4 hours	0.32	1.5	98
concentration: 81.9 (µM), S9 metabolic activation: without S9, exposure time: 24 hours	1.02	2.04	105
concentration: 102 (µM), S9 metabolic activation: with S9, exposure time: 3-4 hours	0.18	1.64	91.4
concentration: 102 (µM), S9 metabolic activation: without S9, exposure time: 24 hours	1.26	2.42	111
concentration: 128 (µM), S9 metabolic activation: with S9, exposure time: 3-4 hours	0.38	2.28	98.8
concentration: 128 (µM), S9 metabolic activation: without S9, exposure time: 24 hours	1.52	2.36	69.2
concentration: 160 (µM), S9 metabolic activation: with S9, exposure time: 3-4 hours	0.92	4.12	70.5
concentration: 160 (µM), S9 metabolic activation: without S9, exposure time: 24 hours	1.04	2.36	59
concentration: 200 (µM), S9 metabolic activation: with S9, exposure time: 3-4 hours	1.4	5.26	49.5
concentration: 200 (µM), S9 metabolic activation: without S9, exposure time: 24 hours	–	–	34.9

— the supplement of paper PMC9151546
